Screen size: about 150,000 compounds; about 540 (0.36%) showed an effect of 50% or more. This is one part of the list.
These molecules were tested on Plasmodium falciparum (assay: Primary screen in NF54 nanoGlo assay, in single point, at 2uM, 72h; a lower Z score goes with more inhibition). Conditions: timepoint 72 hour.
Type: functional, Erythrocyte
With `CCN1CC[C@H](C(=O)N(Cc2cccc(C)c2)C(C)C)C1` the “% Inhibition” value was -14% and the Z score was 1.99.
`O=C1CCCc2nc(NC(=O)C3(C(F)(F)F)CCCC3)sc21` was tested, and the “% Inhibition” value was -11% and the Z score was 1.37.
In the case of `COc1ccc(-c2nc(Cn3ccnc3)c(C)o2)c2ccccc12`, the “% Inhibition” value is reported as -10% and the Z score is reported as 0.96.
`Cc1ccc(CCC(C)NC(=O)C(C)n2cncn2)o1` (stereo not given) was tested, and the “% Inhibition” value was -5% and the Z score was 0.52.
`CCCc1cc2c(cc1NC(=O)c1ccc3ccccc3c1OC)OCO2` was tested, and the “% Inhibition” value was -8% and the Z score was 0.91.
In the case of `Cc1ccc(C)c(S(=O)(=O)NCCNC(=O)c2ccnc(C)n2)c1`, the “% Inhibition” value is reported as -1% and the Z score is reported as 0.19.
For `CCCn1cc(-c2ccncc2)cc1C(=O)N1CCCCCC1`, the “% Inhibition” value was -2% and the Z score was 0.19.
`CCOc1ccc(S(=O)(=O)NC[C@H]2CCN(C3CC3)C2)c(C)c1` was tested, and the “% Inhibition” value was -7% and the Z score was 1.05.
With `COc1cnc(C(=O)N2CCc3[nH]c4ccc(OC(F)(F)F)cc4c3C2)cc1O` the “% Inhibition” value was 6% and the Z score was -0.82.
In the case of `CCC(C)N(C)C(=O)C(C)NC(=O)C1CCC1` (stereo not given), the “% Inhibition” value is reported as -13% and the Z score is reported as 1.68.
In the case of `Nc1ccc2c(N3CCC(Cc4ccccn4)CC3)ncnc2n1`, the “% Inhibition” value is reported as 5% and the Z score is reported as -0.62.
`O=C(NCCCC1(C2OCCO2)CCOCC1)Nc1cccc(-c2nnco2)c1` was tested, and the “% Inhibition” value was -6% and the Z score was 0.82.
For `Cc1cccc(CS(=O)(=O)Nc2ncn(Cc3ccncc3)n2)c1`, the “% Inhibition” value was -4% and the Z score was 0.74.
For `Cc1cc(C)nc(N2CCC[C@@]3(CCC(=O)N(CCc4c[nH]cn4)C3)C2)n1`, the “% Inhibition” value was -2% and the Z score was 0.49.
In the case of `Cc1cccc(N(C)S(=O)(=O)c2c(-c3ccccc3)csc2C(=O)n2nc(C)cc2C)c1`, the “% Inhibition” value is reported as -3% and the Z score is reported as 0.26.
For `CCN(CC)C(=O)[C@H]1CCCN(c2ncnc3c2sc(=S)n3-c2ccccc2)C1`, the “% Inhibition” value was -2% and the Z score was 0.39.
In the case of `CCOc1ccc(-c2cncnc2)cc1C(N)=O`, the “% Inhibition” value is reported as -25% and the Z score is reported as 2.33.
With `Cc1ccc(C)c(OCCN(C)C(=O)CCc2cc3n(n2)CCCNC3)c1` the “% Inhibition” value was -1% and the Z score was 0.1.
In the case of `COc1ccc(C(C)=O)cc1CN(C[C@H]1CCOC1)C1CC1`, the “% Inhibition” value is reported as -4% and the Z score is reported as 0.74.
With `Cc1oc(-c2ccccc2)nc1Cc1noc(Cc2ccc(F)cc2)n1` the “% Inhibition” value was 8% and the Z score was -1.09.
With `Cc1ncc(C(=O)NC2CC2)c(=O)n1CC(=O)Nc1ccccc1Cl` the “% Inhibition” value was 5% and the Z score was -0.75.
With `C[C@@H]1Oc2ccc(NC(=O)Cc3cnn(-c4ccccc4)c3)cc2NC1=O` the “% Inhibition” value was -11% and the Z score was 1.7.
For `CN(C)c1nn(C[C@H](O)c2cccc(F)c2)c(=S)s1`, the “% Inhibition” value was -19% and the Z score was 2.64.
`Cc1nc(O)cc(CCNc2nc3c(s2)c(C)nn3C)n1` was tested, and the “% Inhibition” value was 3% and the Z score was -0.66.
In the case of `CN(C)CCOc1cc(C(=O)N2Cc3ccccc3C2)ccn1`, the “% Inhibition” value is reported as -18% and the Z score is reported as 2.01.
In the case of `CCOCCC(=O)N1C[C@H](C)OCC1(C)C`, the “% Inhibition” value is reported as -4% and the Z score is reported as 0.37.
`CN1CCN([C@@H]2/C(=N\C(C)(C)C)N(c3ccccc3)C(=O)C23CCCCC3)CC1` was tested, and the “% Inhibition” value was -34% and the Z score was 3.96.
`CCN1C(=O)C[C@](CC(=O)N(C)Cc2ccc3nccnc3c2)(c2cccc(C(F)(F)F)c2)C1=O` was tested, and the “% Inhibition” value was 15% and the Z score was -1.84.
For `Cc1noc(OCC(=O)NC2CCCC2)n1`, the “% Inhibition” value was -8% and the Z score was 1.5.
`Cc1c(Br)c(C(F)(F)F)nn1CC(=O)N1CC[C@H](c2nc(C3CCOCC3)no2)C1` was tested, and the “% Inhibition” value was -14% and the Z score was 1.77.
For `COC[C@@H]1CN(c2cnccn2)C[C@H]1C(=O)NCC(F)(F)F`, the “% Inhibition” value was -12% and the Z score was 1.77.
In the case of `CC(C)c1nc(CNC(=O)N2CC[C@H](CS(N)(=O)=O)C2)cs1`, the “% Inhibition” value is reported as -11% and the Z score is reported as 2.1.
For `CCC(OC1CCCC1)C(=O)N1CCCCC1C(C)C` (stereo not given), the “% Inhibition” value was -8% and the Z score was 1.31.
For `Cc1cccc2sc(OC3CN(S(=O)(=O)c4ccc5c(c4)OCCO5)C3)nc12`, the “% Inhibition” value was -4% and the Z score was 0.49.
`CCn1c(CC2CCNCC2)nn(C/C=C/c2ccccc2)c1=O` was tested, and the “% Inhibition” value was -7% and the Z score was 0.98.
For `NC1CCC2(CC1)C[C@@H]2C(=O)NCc1nccc2c1CCCC2` (stereo not given in full), the “% Inhibition” value was 1% and the Z score was -0.26.
In the case of `O=S(=O)(NCCN1CCC(c2cccs2)CC1)C1CC1`, the “% Inhibition” value is reported as 1% and the Z score is reported as -0.17.
`Cc1cnc(C)c(N2CC(O)(c3cnnn3C)C2)n1` was tested, and the “% Inhibition” value was -16% and the Z score was 2.66.
With `N#Cc1cccc(C#N)c1N1CCC[C@H](n2ccc(C(F)(F)F)n2)C1` the “% Inhibition” value was -11% and the Z score was 1.08.
With `O=C(CCCC1CC1)NC[C@H]1CCN(CC(F)F)C1` the “% Inhibition” value was -3% and the Z score was 0.65.
With `O=C(NC[C@H]1CCCN1c1ccccn1)c1ccncc1` the “% Inhibition” value was -8% and the Z score was 1.58.
For `CCOc1ccc(S(=O)(=O)N2CCCN(C)c3nc4ccccc4nc32)cc1`, the “% Inhibition” value was -8% and the Z score was 1.14.
`C[C@H](NCC1(CO)CC1)c1ccccc1N(C)C` was tested, and the “% Inhibition” value was -3% and the Z score was 0.33.
For `COC[C@H](C)NCC(=O)NCc1ccc(OC)c(OC)c1`, the “% Inhibition” value was -3% and the Z score was 0.35.
`COc1cccc(NC(=O)Nc2ccc(N3CC(OC)C3)cc2)c1` was tested, and the “% Inhibition” value was -7% and the Z score was 1.09.
For `O=C(O)C1CCN(C2CCN(Cc3cnc(NCc4ccccc4)nc3)CC2)CC1`, the “% Inhibition” value was -7% and the Z score was 0.93.
With `O=C1c2ccccc2C(=O)N1CCn1nc2ccccn2c1=O` the “% Inhibition” value was -4% and the Z score was 0.36.
With `O=C(NCCc1ccco1)[C@H]1CCCN(C2CCN(Cc3ccccc3)CC2)C1` the “% Inhibition” value was 0% and the Z score was -0.02.
For `COc1ccc2c(c1)N1CCN(c3ccc(F)cc3)CC1C(C(=O)NC1CCCCC1)C2` (stereo not given), the “% Inhibition” value was -1% and the Z score was 0.15.
`CC(C)(C)N(Cc1ccccn1)C(=O)c1nc2c(s1)CCC2` was tested, and the “% Inhibition” value was 6% and the Z score was -0.72.
With `CN(CCCN1CCc2[nH]ncc2C1)c1ccccc1` the “% Inhibition” value was 0% and the Z score was 0.05.
`OCCCN(Cc1ccncc1)Cc1cnc(-c2ccc(Cl)cc2)nc1` was tested, and the “% Inhibition” value was -1% and the Z score was 0.23.
With `C[C@H](NC(=O)c1ccc(S(=O)(=O)N2CCCC2)cc1)c1ccccn1` the “% Inhibition” value was -24% and the Z score was 2.38.
In the case of `CC[C@@H](C(=O)N(CC)Cc1ccccc1)n1cnc2onc(C)c2c1=O`, the “% Inhibition” value is reported as -4% and the Z score is reported as 0.5.
`N#Cc1cccnc1N(CCc1ccc(Cl)cc1)CC1CC1` was tested, and the “% Inhibition” value was 1% and the Z score was -0.15.
